Laboratory results published in patent US20260184782A1 (TWIST BIOSCIENCE, published 2026).

T1: TIGIT (UniProt Q495A1 22-141, limits assumed)
T1 construct: also called T cell immunoreceptor with Ig and ITIM domains; hTIGIT
T1 sequence (looked up): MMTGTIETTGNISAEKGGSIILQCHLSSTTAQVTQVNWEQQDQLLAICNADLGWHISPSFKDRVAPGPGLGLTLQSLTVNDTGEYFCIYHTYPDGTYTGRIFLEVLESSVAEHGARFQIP


Experiments:
TIGIT [1] = biological target: T1, TIGIT; test: ELISA
TIGIT [2] = biological target: T1, TIGIT; test: SPR (Carterra), VHH-Fc

| Binder | ELISA (TIGIT [1]) | Kd (TIGIT [2]) [nM] | koff (TIGIT [2]) [s⁻¹] | kon (TIGIT [2]) [M⁻¹ s⁻¹] |
| --- | --- | --- | --- | --- |
| TIGIT-31-02 (VHH-Fc) (Fc fusion) EVQLVESGGGLVQPGGSLRLSCAASGRTFGDYIMGWFRQAPGKERELVAEITRSGRTNYADSVKGRFTISADNSKNTAYLQMNSLKPEDTAVYYCAAVFSRGPLTWGQGTLVTVSSGGGGS[in this place human IgG1 Fc with C220S (EU numbers)] | 8.4 | 216 | 0.054 | 250000 |
| TIGIT-31-11 (VHH-Fc) (Fc fusion) EVQLVESGGGLVQPGGSLRLSCAASGFTFSTSWMGWFRQAPGKEREFVASISTSGNTFYADSVKGRFTISADNSKNTAYLQMNSLKPEDTAVYYCAADVWYGSTWRNWGQGTLVTVSSGGGGS[in this place human IgG1 Fc with C220S (EU numbers)] | 4.5 | 118 | 0.042 | 360000 |
| TIGIT-31-38 (VHH-Fc) (Fc fusion) EVQLVESGGGLVQPGGSLRLSCAASGFTFDRSWMGWFRQAPGKERELVASITSGGSTSYADSVKGRFTISADNSKNTAYLQMNSLKPEDTAVYYCAADVWYGSTWRNWGQGTLVTVSSGGGGS[in this place human IgG1 Fc with C220S (EU numbers)] | 4.8 | 172 | 0.062 | 360000 |
| TIGIT-31-20 (VHH-Fc) (Fc fusion) EVQLVESGGGLVQPGGSLRLSCAASGFTFSGNWMGWFRQAPGKEREFVAGILSDGRELYADSVKGRFTISADNSKNTAYLQMNSLKPEDTAVYYCAADVWYGSTWRNWGQGTLVTVSSGGGGS[in this place human IgG1 Fc with C220S (EU numbers)] | 6.6 | 74 | 0.0092 | 120000 |
| TIGIT-31-13 (VHH-Fc) (Fc fusion) EVQLVESGGGLVQPGGSLRLSCAASGFTFDRSWMGWFRQAPGKEREWVASITSGGTTNYADSVKGRFTISADNSKNTAYLQMNSLKPEDTAVYYCAADVWYGSTWRNWGQGTLVTVSSGGGGS[in this place human IgG1 Fc with C220S (EU numbers)] | 7.3 | 409 | 0.033 | 80000 |
| TIGIT-31-17 (VHH-Fc) (Fc fusion) EVQLVESGGGLVQPGGSLRLSCAASGFTMSSSWMGWFRQAPGKEREWVASINSGGTRNYADSVKGRFTISADNSKNTAYLQMNSLKPEDTAVYYCAADVWYGSTWRNWGQGTLVTVSSGGGGS[in this place human IgG1 Fc with C220S (EU numbers)] | 8.7 | 166 | 0.025 | 150000 |
| TIGIT-31-33 (VHH-Fc) (Fc fusion) EVQLVESGGGLVQPGGSLRLSCAASGFTFSTSWMGWFRQAPGKERELVASITSGGSTNYADSVKGRFTISADNSKNTAYLQMNSLKPEDTAVYYCAADVWYGSTWRNWGQGTLVTVSSGGGGS[in this place human IgG1 Fc with C220S (EU numbers)] | 6 | 96 | 0.051 | 530000 |
| TIGIT-31-16 (VHH-Fc) (Fc fusion) EVQLVESGGGLVQPGGSLRLSCAASGFTFSTSWMGWFRQAPGKERELVVSVTSGGYTNYADSVKGRFTISADNSKNTAYLQMNSLKPEDTAVYYCAADVWYGSTWRNWGQGTLVTVSSGGGGS[in this place human IgG1 Fc with C220S (EU numbers)] | 9.2 | 151 | 0.037 | 240000 |
| TIGIT-31-31 (VHH-Fc) (Fc fusion) EVQLVESGGGLVQPGGSLRLSCAASGFTLSGNWMGWFRQAPGKEREFVASISSGGGTNYADSVKGRFTISADNSKNTAYLQMNSLKPEDTAVYYCAADVWYGSTWRNWGQGTLVTVSSGGGGS[in this place human IgG1 Fc with C220S (EU numbers)] | 6.7 | 104 | 0.054 | 520000 |
| TIGIT-31-39 (VHH-Fc) (Fc fusion) EVQLVESGGGLVQPGGSLRLSCAASGFTFSTSWMGWFRQAPGKERELVAGVNSNGYINYADSVKGRFTISADNSKNTAYLQMNSLKPEDTAVYYCAADVWYGSTWRNWGQGTLVTVSSGGGGS[in this place human IgG1 Fc with C220S (EU numbers)] | 9.9 | 78 | 0.0082 | 100000 |
| TIGIT-31-42 (VHH-Fc) (Fc fusion) EVQLVESGGGLVQPGGSLRLSCAASGFTFSTHWMGWFRQAPGKEREFVASIGSSGTTRYADSVKGRFTISADNSKNTAYLQMNSLKPEDTAVYYCAADVWYGSTWRNWGQGTLVTVSSGGGGS[in this place human IgG1 Fc with C220S (EU numbers)] | 9.6 | 371 | 240 | 6.5e+08 |
| TIGIT-31-36 (VHH-Fc) (Fc fusion) EVQLVESGGGLVQPGGSLRLSCAASGFTFDRSWMGWFRQAPGKERELVASVTSGGTTNYADSVKGRFTISADNSKNTAYLQMNSLKPEDTAVYYCAADVWYGSTWRNWGQGTLVTVSSGGGGS[in this place human IgG1 Fc with C220S (EU numbers)] | 5.6 | 102 | 0.041 | 410000 |
| TIGIT-31-18 (VHH-Fc) (Fc fusion) EVQLVESGGGLVQPGGSLRLSCAASGFTFSGNWMGWFRQAPGKEREFVASISSGSAINYADSVKGRFTISADNSKNTAYLQMNSLKPEDTAVYYCAADVWYGSTWRNWGQGTLVTVSSGGGGS[in this place human IgG1 Fc with C220S (EU numbers)] | 4.1 | 99 | 0.54 | 5.4e+06 |
| TIGIT-31-45 (VHH-Fc) (Fc fusion) EVQLVESGGGLVQPGGSLRLSCAASGFTFSGNWMGWFRQAPGKEREFVAGVNSNGYINYADSVKGRFTISADNSKNTAYLQMNSLKPEDTAVYYCAADVWYGSTWRNWGQGTLVTVSSGGGGS[in this place human IgG1 Fc with C220S (EU numbers)] | 8.6 | 193 | 0.03 | 150000 |
| TIGIT-31-44 (VHH-Fc) (Fc fusion) EVQLVESGGGLVQPGGSLRLSCAASGFTFSGNWMGWFRQAPGKEREWVASISSGGTTNYADSVKGRFTISADNSKNTAYLQMNSLKPEDTAVYYCAADVWYGSTWRNWGQGTLVTVSSGGGGS[in this place human IgG1 Fc with C220S (EU numbers)] | 9.2 | 140 | 0.049 | 350000 |

Other lines, results leading:

| ELISA (TIGIT [1]) | Kd (TIGIT [2]) [nM] | koff (TIGIT [2]) [s⁻¹] | kon (TIGIT [2]) [M⁻¹ s⁻¹] | Binder |
| --- | --- | --- | --- | --- |
| 7.9 | 154 | 0.033 | 210000 | TIGIT-31-55 (VHH-Fc) (Fc fusion) EVQLVESGGGLVQPGGSLRLSCAASGRTFGDYIMGWFRQAPGKERELVAEITRVGNTNYADSVKGRFTISADNSKNTAYLQMNSLKPEDTAVYYCAAVFSRGPLTWGQGTLVTVSSGGGGS[in this place human IgG1 Fc with C220S (EU numbers)] |
| 8.8 | 53 | 0.0059 | 110000 | TIGIT-31-47 (VHH-Fc) (Fc fusion) EVQLVESGGGLVQPGGSLRLSCAASGFTFSGNWMGWFRQAPGKEREWVVGISSGGTPHYADSVKGRFTISADNSKNTAYLQMNSLKPEDTAVYYCAADVWYGSTWRNWGQGTLVTVSSGGGGS[in this place human IgG1 Fc with C220S (EU numbers)] |
| 3.3 | 175 | 19 | 1.1e+08 | TIGIT-31-48 (VHH-Fc) (Fc fusion) EVQLVESGGGLVQPGGSLRLSCAASGFTLSSNWMGWFRQAPGKERELVAGVNSNGYINYADSVKGRFTISADNSKNTAYLQMNSLKPEDTAVYYCAADVWYGSTWRNWGQGTLVTVSSGGGGS[in this place human IgG1 Fc with C220S (EU numbers)] |
| 6.5 | 308 | 260 | 8.4e+08 | TIGIT-31-52 (VHH-Fc) (Fc fusion) EVQLVESGGGLVQPGGSLRLSCAASGFTFDRSWMGWFRQAPGKEREFVAGITSSGIPNYADSVKGRFTISADNSKNTAYLQMNSLKPEDTAVYYCAADVWYGSTWRNWGQGTLVTVSSGGGGS[in this place human IgG1 Fc with C220S (EU numbers)] |
| 9 | 107 | 0.018 | 170000 | TIGIT-31-54 (VHH-Fc) (Fc fusion) EVQLVESGGGLVQPGGSLRLSCAASGFTFSTSWMGWFRQAPGKERELVAAVTSGGNTNYADSVKGRFTISADNSKNTAYLQMNSLKPEDTAVYYCAADVWYGSTWRNWGQGTLVTVSSGGGGS[in this place human IgG1 Fc with C220S (EU numbers)] |
| 7.6 | 132 | 0.027 | 210000 | TIGIT-31-46 (VHH-Fc) (Fc fusion) EVQLVESGGGLVQPGGSLRLSCAASGFTFDRSWMGWFRQAPGKERELVASITSGGTTSYADSVKGRFTISADNSKNTAYLQMNSLKPEDTAVYYCAADVWYGSTWRNWGQGTLVTVSSGGGGS[in this place human IgG1 Fc with C220S (EU numbers)] |
| 6.7 | 551 | 0.036 | 66000 | TIGIT-31-50 (VHH-Fc) (Fc fusion) EVQLVESGGGLVQPGGSLRLSCAASGFTMSSSWMGWFRQAPGKEREFVGGISSGGSTYYADSVKGRFTISADNSKNTAYLQMNSLKPEDTAVYYCAADVWYGSTWRNWGQGTLVTVSSGGGGS[in this place human IgG1 Fc with C220S (EU numbers)] |
